Data reported in the RNAGym collection of RNA variant scans (doi:10.1073/pnas.2313332121).
Variants at the background level are over-represented here.

B1: TPR 5TU (parent)
chain: GGAUCUUCUCGAUCUAACAAAAAAGACAAAUCUGCCACAAAGCUUGAGAGCAUCUUCGGAUGCAGAGGCGGCAGCCUUCGGUGGCGCGAUAGCGCCAACGUUCUCAACUAUGACACGCAAAACGCGUGCUCCGUUGAAUGGAGUUUAUCAUG

Variants of: B1
Assay: polymerase ribozyme fitness, log enrichment relative to wild type (log ratio); higher = more active; in vitro selection for triplet polymerase activity
Summary of the method: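 Each subunit of a heterodimeric triplet polymerase ribozyme was represented by a PCR-built, transcribed mutant library that underwent triplicate single-round in vitro selection with frozen incubation at −7 °C. Extended constructs were recovered by gel excision, streptavidin-bead capture and RT-PCR, and Illumina sequencing of input and output libraries kept genotypes with ≥10 input reads and ≥1 read per output. Fitness is the logarithm of genotype enrichment relative to wild-type enrichment, from inverse-variance-weighted replicate averages, with a logarithm base of 2.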

| Variant | polymerase ribozyme fitness (log ratio) |
| --- | --- |
| GGAUCUUCUCGAUCUAACAAAAAAGACAAAUCUGCCACAAAGCUUGAGAGCAUCUUCGGAUGCAGAGGCGGCAGCCUUCGGUGGCGCGAUAGCGCCAAAGUUCUCAAGUAUGACACGCAAAACGCGUGCUCCGUUGAAUGGAGUCUAUCAUG [C99A C108G U145C] | ≤ -4.2 |
| GGAUCUUCUCGAUCUAACAAAAAAGACAAAUCUGCCACAAAGCUUGAGAGCAUCUUCGGAUGCAGAGGCGGCAGCCUUCGGUGGCGCGAUAGCGCCAAGGUUCUCAACUAUGACACGCAACACGCGUGCUCCGUUGAAUGGAGUUUAUCAAG [C99G A121C U151A] | ≤ -4.2 |
| GGAUCUUCUCGAUCUAACAAAAAAGACAAAUCUGCCACAAAGCUUGAGAGCAUCUUCGGAUGCAGAGGCGGCAGCCUUCGGUGGCGCGAUAGCGCCAAGGUUCUCAACUAUGAUACGCAAAACGCGUGCUCCGUUGAAUGGAGUUUAUCAUG [C99G C114U] | -2.38 |
| GGAUCUUCUCGAUCUAACAAAAAAGACAAAUCUGCCACAAAGCUUGAGAGCAUCUUCGGAUGCAGAGGCGGCAGCCUUCGGUGGCGCGAUAGCGCCAAGGUUCUCAACUAUGACACGCAAAAUGCGUGCUCCGUUGAAUGGACUGUAUCAUG [C99G C123U G143C U145G] | ≤ -4.2 |
| GGAUCUUCUCGAUCUAACAAAAAAGACAAAUCUGCCACAAAGCUUGAGAGCAUCUUCGGAUGCAGAGGCGGCAGCCUUCGGUGGCGCGAUAGCGCCAAUGUUCUCAACUAGGACACGCAAAACGCGUGCUCCGUUGAAUGGAGUUUAUCAUG [C99U U111G] | ≤ -4.2 |
| GGAUCUUCUCGAUCUAACAAAAAAGACAAAUCUGCCACAAAGCUUGAGAGCAUCUUCGGAUGCAGAGGCGGCAGCCUUCGGUGGCGCGAUAGCGCCAACAUUCUCAACUAUGACACGCGAAACACGUGCUCCGUUGAAUGGAGUUUAUCAUG [G100A A119G G124A] | ≤ -4.2 |
| GGAUCUUCUCGAUCUAACAAAAAAGACAAAUCUGCCACAAAGCUUGAGAGCAUCUUCGGAUGCAGAGGCGGCAGCCUUCGGUGGCGCGAUAGCGCCAACAUUCUCAACUAUGACACGCAAAACGCGUGGUCCGUUGAAUGGAGUUUAUCAUG [G100A C129G] | ≤ -4.2 |
| GGAUCUUCUCGAUCUAACAAAAAAGACAAAUCUGCCACAAAGCUUGAGAGCAUCUUCGGAUGCAGAGGCGGCAGCCUUCGGUGGCGCGAUAGCGCCAACAUUCUCAACUAUGACACGCAAAACCCGUGCUCCGUUGAAUGGAGUUUAUCAUG [G100A G124C] | ≤ -4.2 |
| GGAUCUUCUCGAUCUAACAAAAAAGACAAAUCUGCCACAAAGCUUGAGAGCAUCUUCGGAUGCAGAGGCGGCAGCCUUCGGUGGCGCGAUAGCGCCAACCUUCUCAACUAUGACACGCAAAACGCGUGCUGCGUUGAAUGGAGUUUAUCAUG [G100C C131G] | ≤ -4.2 |
| GGAUCUUCUCGAUCUAACAAAAAAGACAAAUCUGCCACAAAGCUUGAGAGCAUCUUCGGAUGCAGAGGCGGCAGCCUUCGGUGGCGCGAUAGCGCCAACUGUCUCAACUAUGACACGCAAAACGCGUGCUCCGUUGAAUGGAGUUUAUCAUG [G100U U101G] | -3.34 |
| GGAUCUUCUCGAUCUAACAAAAAAGACAAAUCUGCCACAAAGCUUGAGAGCAUCUUCGGAUGCAGAGGCGGCAGCCUUCGGUGGCGCGAUAGCGCCAACGAUCUCAACUAUGACACGCAAAACGCGUGCUCCGUUGAAUGGACUUUAUCAUG [U101A G143C] | -2.08 |
| GGAUCUUCUCGAUCUAACAAAAAAGACAAAUCUGCCACAAAGCUUGAGAGCAUCUUCGGAUGCAGAGGCGGCAGCCUUCGGUGGCGCGAUAGCGCCAACGGUCUCAACUAUGACUCUCAAAACGCGUGCUCCGUUGAAUGGAGUUUAUCCUG [U101G A115U G117U A150C] | ≤ -4.2 |
| GGAUCUUCUCGAUCUAACAAAAAAGACAAAUCUGCCACAAAGCUUGAGAGCAUCUUCGGAUGCAGAGGCGGCAGCCUUCGGUGGCGCGAUAGCGCCAACGUCCUCUACUAUGACACGCAAAACGCGUGCUCCGUUGAAUGGAGUUUAUCAUG [U102C A106U] | ≤ -4.2 |
| GGAUCUUCUCGAUCUAACAAAAAAGACAAAUCUGCCACAAAGCUUGAGAGCAUCUUCGGAUGCAGAGGCGGCAGCCUUCGGUGGCGCGAUAGCGCCAACGUCCUCAACUAUGACACGCAAAACGCGUGCUCCGUUAAAUGGAGUUUAUCAUG [U102C G136A] | -0.705 |
| GGAUCUUCUCGAUCUAACAAAAAAGACAAAUCUGCCACAAAGCUUGAGAGCAUCUUCGGAUGCAGAGGCGGCAGCCUUCGGUGGCGCGAUAGCGCCAACGUCCUCAACUAUGACACGCAAAACGCGUGCUCCGAUGAAUGGAGUUUAUCAUG [U102C U134A] | -3.46 |
| GGAUCUUCUCGAUCUAACAAAAAAGACAAAUCUGCCACAAAGCUUGAGAGCAUCUUCGGAUGCAGAGGCGGCAGCCUUCGGUGGCGCGAUAGCGCCAACGUGCUCAACUCUGACACGCAAAACGCGUGCUCCGUUGAAUGGAGUUUAUCAUG [U102G A110C] | ≤ -4.2 |
| GGAUCUUCUCGAUCUAACAAAAAAGACAAAUCUGCCACAAAGCUUGAGAGCAUCUUCGGAUGCAGAGGCGGCAGCCUUCGGUGGCGCGAUAGCGCCAACGUGCUCAACUAUGACACGCAAAACGCGUGCUCCGUUGAAUGGAGUUUAUCCUG [U102G A150C] | ≤ -4.2 |
| GGAUCUUCUCGAUCUAACAAAAAAGACAAAUCUGCCACAAAGCUUGAGAGCAUCUUCGGAUGCAGAGGCGGCAGCCUUCGGUGGCGCGAUAGCGCCAACGUGCUCAACUAUGACAAGCAAAACGCGUGCUCCGUUGAAUGGAGUUUAUCAUG [U102G C116A] | -2.07 |
| GGAUCUUCUCGAUCUAACAAAAAAGACAAAUCUGCCACAAAGCUUGAGAGCAUCUUCGGAUGCAGAGGCGGCAGCCUUCGGUGGCGCGAUAGCGCCAACGUUAUCAACUAUGACACGCAGAACGCGUGCUUCGUUGAUUGGAGUUUAUCAUG [C103A A120G C131U A138U] | -3.71 |

| Variant | polymerase ribozyme fitness (log ratio) |
| --- | --- |
| GGAUCUUCUCGAUCUAACAAAAAAGACAAAUCUGCCACAAAGCUUGAGAGCAUCUUCGGAUGCAGAGGCGGCAGCCUUCGGUGGCGCGAUAGCGCCAACGUUAUCAACUAUGACACGCAAAGCGCGUGCUCCGUUGAAUGGAGUUUAACAUG [C103A A122G U148A] | ≤ -4.2 |
| GGAUCUUCUCGAUCUAACAAAAAAGACAAAUCUGCCACAAAGCUUGAGAGCAUCUUCGGAUGCAGAGGCGGCAGCCUUCGGUGGCGCGAUAGCGCCAACGUUGUCAAAUAUGACACGCAAAACGCGUGCUCCGUUGAAUGGAGUUUAUCAUG [C103G C108A] | ≤ -4.2 |
| GGAUCUUCUCGAUCUAACAAAAAAGACAAAUCUGCCACAAAGCUUGAGAGCAUCUUCGGAUGCAGAGGCGGCAGCCUUCGGUGGCGCGAUAGCGCCAACGUUGUCAACUAUGACACGUUAAACGCGUGCUCCGUUGAAUGGACUUUAUCAUG [C103G C118U A119U G143C] | ≤ -4.2 |
| GGAUCUUCUCGAUCUAACAAAAAAGACAAAUCUGCCACAAAGCUUGAGAGCAUCUUCGGAUGCAGAGGCGGCAGCCUUCGGUGGCGCGAUAGCGCCAACGUUGUCAACUAUGACACGCAAAACGCGUGCUCAGUUGAAUGGAGUUUAUCAUG [C103G C132A] | ≤ -4.2 |
| GGAUCUUCUCGAUCUAACAAAAAAGACAAAUCUGCCACAAAGCUUGAGAGCAUCUUCGGAUGCAGAGGCGGCAGCCUUCGGUGGCGCGAUAGCGCCAACGUUGUCAACUAUGACACGCAAAACGCGUGCUCCGUUGAAUGGAGAUUAUCAUG [C103G U144A] | -2.15 |
| GGAUCUUCUCGAUCUAACAAAAAAGACAAAUCUGCCACAAAGCUUGAGAGCAUCUUCGGAUGCAGAGGCGGCAGCCUUCGGUGGCGCGAUAGCGCCAACGUUGUCAACUAUGACACGCAAAACGCGUGCUCCGUUGAAUGGAGUGUAUCAUG [C103G U145G] | -1.87 |
| GGAUCUUCUCGAUCUAACAAAAAAGACAAAUCUGCCACAAAGCUUGAGAGCAUCUUCGGAUGCAGAGGCGGCAGCCUUCGGUGGCGCGAUAGCGCCAACGUUGUCAACUAUGACACGCAAAACGCGUGCUCCGUUGAAUGGAGUUUACCAUG [C103G U148C] | ≤ -4.2 |
| GGAUCUUCUCGAUCUAACAAAAAAGACAAAUCUGCCACAAAGCUUGAGAGCAUCUUCGGAUGCAGAGGCGGCAGCCUUCGGUGGCGCGAUAGCGCCAACGUUCGCAACUAUGACACGCAAAACGCGUGCUCCGUUGAAUGUAGUUUAUCAUG [U104G G141U] | 0.973 |
| GGAUCUUCUCGAUCUAACAAAAAAGACAAAUCUGCCACAAAGCUUGAGAGCAUCUUCGGAUGCAGAGGCGGCAGCCUUCGGUGGCGCGAUAGCGCCAACGUUCGCAACAAUGACACGCAAAACGCGUGCUCCCUUGAAUGGAGUUUAUCAUG [U104G U109A G133C] | -2.78 |
| GGAUCUUCUCGAUCUAACAAAAAAGACAAAUCUGCCACAAAGCUUGAGAGCAUCUUCGGAUGCAGAGGCGGCAGCCUUCGGUGGCGCGAUAGCGCCAACGUUCUGAGCUAUGACACGCAAAACGCGUGCUUCGUUGAAUGGAGUUUAUCAUG [C105G A107G C131U] | ≤ -4.2 |
| GGAUCUUCUCGAUCUAACAAAAAAGACAAAUCUGCCACAAAGCUUGAGAGCAUCUUCGGAUGCAGAGGCGGCAGCCUUCGGUGGCGCGAUAGCGCCAACGUUCUUAACUAUGACACGCAAAACGCGUGCUCCGUUGAAUGGCGUUUAUCAUG [C105U A142C] | -0.229 |
| GGAUCUUCUCGAUCUAACAAAAAAGACAAAUCUGCCACAAAGCUUGAGAGCAUCUUCGGAUGCAGAGGCGGCAGCCUUCGGUGGCGCGAUAGCGCCAACGUUCUCCACUAUGAAACGCAAAACGCGUGCUCCGUUGAAUCCAGUUUAUCAUG [A106C C114A G140C G141C] | ≤ -4.2 |
| GGAUCUUCUCGAUCUAACAAAAAAGACAAAUCUGCCACAAAGCUUGAGAGCAUCUUCGGAUGCAGAGGCGGCAGCCUUCGGUGGCGCGAUAGCGCCAACGUUCUCGACUAUGACUCGGAAAACGCGUGCUCCGUUGACGGGAGUUUAUCAUG [A106G A115U C118G A138C U139G] | ≤ -4.2 |
| GGAUCUUCUCGAUCUAACAAAAAAGACAAAUCUGCCACAAAGCUUGAGAGCAUCUUCGGAUGCAGAGGCGGCAGCCUUCGGUGGCGCGAUAGCGCCAACGUUCUCGACUAUGAUACGCAAAACGCGGGCUCCCUUGACUGGAGUGUAUCAUG [A106G C114U U127G G133C A138C U145G] | ≤ -4.2 |
| GGAUCUUCUCGAUCUAACAAAAAAGACAAAUCUGCCACAAAGCUUGAGAGCAUCUUCGGAUGCAGAGGCGGCAGCCUUCGGUGGCGCGAUAGCGCCAACGUUCUCAGCUAUGACACGAAAAACGCGUGCUCCGUUGAAUGGAGUUUAUCAUG [A107G C118A] | ≤ -4.2 |
| GGAUCUUCUCGAUCUAACAAAAAAGACAAAUCUGCCACAAAGCUUGAGAGCAUCUUCGGAUGCAGAGGCGGCAGCCUUCGGUGGCGCGAUAGCGCCAACGUUCUCAGCUAUGACACGUAAAACGCGUGCUCCGUUGAAUGGAGUAUAUCAUG [A107G C118U U145A] | ≤ -4.2 |
| GGAUCUUCUCGAUCUAACAAAAAAGACAAAUCUGCCACAAAGCUUGAGAGCAUCUUCGGAUGCAGAGGCGGCAGCCUUCGGUGGCGCGAUAGCGCCAACGUUCUCAAAUAUGACACGCAAAACGCGUGCUCCGUUGAAUCGAGUUUAUCAUG [C108A G140C] | ≤ -4.2 |
| GGAUCUUCUCGAUCUAACAAAAAAGACAAAUCUGCCACAAAGCUUGAGAGCAUCUUCGGAUGCAGAGGCGGCAGCCUUCGGUGGCGCGAUAGCGCCAACGUUCUCAAGAAUGACACGUAAAACGCGUGCUCCGUUGAAUGGAAUUGAUCAUG [C108G U109A C118U G143A U146G] | ≤ -4.2 |
| GGAUCUUCUCGAUCUAACAAAAAAGACAAAUCUGCCACAAAGCUUGAGAGCAUCUUCGGAUGCAGAGGCGGCAGCCUUCGGUGGCGCGAUAGCGCCAACGUUCUCAAUUAUGACGCGCAAAACGCGUGCUCCGUUGAAUGGAGUUUAUCAUG [C108U A115G] | -3.94 |
